From the RNAGym collection of RNA variant scans (doi:10.7554/elife.90254) come the findings set out here.

The chains are these.
B1: LINE1-mini (parent)
chain: GGCAGAGCUCAACACAGCGUGGCAAAGUGGCUGUGGCUAGACUGCC

The source gives no read counts; variants with many changes may rest on few reads.

Variants of B1 are the subject of this series. The series can be described thus: self-cleavage, relative activity (ratio to wild type); higher = more cleavage; in vitro, sequencing; the parent is a self-cleaving ribozyme.
Regarding U20A A25U G29C C42A, the self-cleavage worked out at 0.08.

In the case of A14U C15A G17A G19U G27C U38A, the self-cleavage came out at 0.

Turning to C10U G17C A24U, the self-cleavage is 0.82.

As for A11C G27U G44C, the self-cleavage amounted to 0.02.

For the variant A4G C23G G30U, the self-cleavage stood at 0.17.

For the variant C10G C23G C45U, the self-cleavage stood at 0.02.

Consider U9G C31U A39U C42U, for which the self-cleavage stood at 0.02.

Take A11C U32A U43C: the self-cleavage stood at 0.05.

For G5C A6G C18U G21U G27C, the self-cleavage turned out to be 0.07.

Turning to G5A C10U A11G G36U C45A, the self-cleavage worked out at 0.

On to C3A A14C C42G, for which the self-cleavage turned out to be 0.31.

For the variant C10A G22C A26G, the self-cleavage came out at 0.01.

Take A12U C23A A26G U28A G30C: the self-cleavage worked out at 0.19.

On to G21C C23A C37U, for which the self-cleavage turned out to be 0.04.

Turning to C13G G17U U34G, the self-cleavage worked out at 0.02.

Turning to G5A C8G C31U, the self-cleavage is 0.07.

A25C A26G U34A C37A: the self-cleavage turned out to be 0.02.

Regarding G29U G36A C37A C46A, the self-cleavage worked out at 0.35.

In the case of G1A G30U A41U, the self-cleavage stood at 0.36.

G17C A39U G40C: the self-cleavage amounted to 0.15.

For the variant G17U G22A A41G G44A, the self-cleavage is 0.04.

A4C C15G A39U: the self-cleavage is 0.

Take G5C C15A G27C G29A C46A: the self-cleavage worked out at 0.03.

On to U9G G22C A39U, for which the self-cleavage stood at 0.02.

C23U A25G C31G C46A: the self-cleavage was determined as 0.07.

A4C C8U A25C G29U C37U U38A: the self-cleavage was 0.31.

Regarding A6U A14C A39G, the self-cleavage is 0.02.

Turning to G5U U34C G35U, the self-cleavage is 0.08.

In the case of A24C A26C C31U, the self-cleavage was 0.08.

As to A6G G7A A39U, the self-cleavage was 0.04.

With G5U A11U A16G G22C G30A G40U, the self-cleavage stood at 0.01.

Regarding C18U G22C G33C G36C, the self-cleavage amounted to 0.02.

Regarding C15A G21U G29U U32C C37U C45G C46G, the self-cleavage turned out to be 0.01.

In the case of C3A U9G G30A A41U, the self-cleavage is 0.05.

In the case of A14G G36U C42U, the self-cleavage worked out at 0.

C8U G22C G27A G29A G36A C45U: the self-cleavage is 0.17.

G17C U20C A41U U43A: the self-cleavage is 0.03.

With A12C C13A C31U, the self-cleavage was 0.01.

Regarding U20G A25U G30C, the self-cleavage turned out to be 0.14.

With A26C G27A G30C, the self-cleavage is 0.36.

In the case of G2U C8A U9G G22A U43C, the self-cleavage worked out at 0.01.

In the case of G1U U9C G27U G29A C37G G44C, the self-cleavage turned out to be 0.01.

For U9C C31A C45A, the self-cleavage turned out to be 0.

Regarding G2C A16C G22A, the self-cleavage was found to be 0.08.

G1A C8G A16U G27A G36U A39C C45A: the self-cleavage came out at 0.1.

In the case of G7U G29U G36C, the self-cleavage is 0.11.

For C8G G17A C31U C37U A39C, the self-cleavage came out at 0.02.

As to U9G C15A C37A, the self-cleavage is 0.29.

With G1U A24G C37A, the self-cleavage was 0.1.

Consider C3A C13A A14G A25G, for which the self-cleavage worked out at 0.5.

For the variant C18U G22C A39C C46U, the self-cleavage worked out at 0.15.

C15U G19A A25G U34C A39C: the self-cleavage came to 0.01.

On to A4C U9A G30C U38A A41C, for which the self-cleavage was 0.37.

As to C3U C8A C10G A11U G17U G33U, the self-cleavage came to 0.06.

On to A12G G36C A41U, for which the self-cleavage is 0.09.

With C15A C31A A41G, the self-cleavage amounted to 0.02.

Turning to G5U G27A G35C, the self-cleavage came out at 0.03.

In the case of U9A C23U U28G G44A, the self-cleavage turned out to be 0.12.

Consider G7C C13A C15G C31G, for which the self-cleavage came out at 0.03.

With C3A A14C G22A C37G G40C, the self-cleavage is 0.04.

Take U28C C31G G36A: the self-cleavage stood at 0.05.

Consider C8U A14U U32A U34G, for which the self-cleavage is 0.05.

With U9G A26G C31U U34A, the self-cleavage is 0.09.

Consider G1C G5U C13U G19A G27U, for which the self-cleavage came to 0.01.

Regarding A4U G5A U34A, the self-cleavage amounted to 0.02.

On to G2C C18A C42A, for which the self-cleavage amounted to 0.04.

Take G27U G33U C37A: the self-cleavage came to 0.04.

C3A A6C A11C U38G: the self-cleavage is 0.04.

For C10G G21U A41G, the self-cleavage turned out to be 0.02.

For the variant G1U C3U C18A, the self-cleavage was found to be 0.13.

For the variant G1U C23G U34A C42G U43A, the self-cleavage turned out to be 0.03.

Regarding C3U G19U C37G, the self-cleavage turned out to be 0.03.

On to U9G G27U C31U, for which the self-cleavage amounted to 0.03.

In the case of U9A U20C G44A, the self-cleavage worked out at 0.05.

As to C13U C15U G21U A26G U28C G33C C37A, the self-cleavage was determined as 0.06.

With C3A A41U C46U, the self-cleavage stood at 0.2.

Regarding G7U A16U C18U, the self-cleavage turned out to be 0.02.

Take A4U U9G G44C: the self-cleavage stood at 0.02.

As for G5C C15A A24C G30C, the self-cleavage amounted to 0.02.

As to G2U G7A U34A, the self-cleavage stood at 0.14.

On to G1U G21U C31A, for which the self-cleavage is 0.06.

As to A14U C23U C37A U38G U43C G44U, the self-cleavage was determined as 0.03.

For the variant C3U G7U U9C U32A, the self-cleavage was 0.02.

In the case of A11G A14G G17U, the self-cleavage stood at 0.06.

With G21U U38C C42U, the self-cleavage was 0.28.

In the case of G2A C13G G17A G19C, the self-cleavage came out at 0.34.

As to G2C A16C G27C U43G, the self-cleavage was found to be 0.01.

G19U G33C C37A G40U: the self-cleavage came out at 0.09.

As for C13U A14C G30U C42G C46G, the self-cleavage was 0.03.

For the variant G19U U20G G27C C42U, the self-cleavage was found to be 2.64.

As to C3U G30U G36U, the self-cleavage stood at 0.28.

Consider G7U C15U U43A, for which the self-cleavage was determined as 0.02.

As for C8U C10A A12G C37U, the self-cleavage came out at 0.02.

As to C8G A14C G30A, the self-cleavage turned out to be 0.03.

In the case of C10A A24G G36A C42G, the self-cleavage is 0.01.

G2C G30U U38A A41U: the self-cleavage came to 0.27.

For the variant C10A G17C U28G U32G U38G, the self-cleavage turned out to be 0.01.

Take U28C G36C U38A: the self-cleavage worked out at 0.01.

Consider A4U G19U A39C, for which the self-cleavage was 0.05.

As to G27C U28A G35C, the self-cleavage is 0.02.

For G2A G19U G27U G29U G33C, the self-cleavage was 0.04.

Take G19A A26U G35A A41C C46U: the self-cleavage turned out to be 0.09.

As to G7A C8A C31G C37U, the self-cleavage is 0.36.

A4C C10G C18A G33U: the self-cleavage is 0.

With G2A G7C C18A A24C C31A G44C, the self-cleavage stood at 0.05.

Take G1C A26C U34A G40A: the self-cleavage was 0.

G5C C8A A14G G29A A39C G40A: the self-cleavage was 0.13.

As for G5A A14U U43A G44A, the self-cleavage was 0.05.

Regarding C8A C13U G33A, the self-cleavage is 0.08.

As to A4G G5U C45U, the self-cleavage came to 0.08.

Take G22U C37A C46G: the self-cleavage amounted to 0.03.

As to U20C G27A C37G, the self-cleavage was determined as 0.03.

For G21C C23A G29U C42G, the self-cleavage amounted to 0.03.

Turning to A4U G44U C46U, the self-cleavage stood at 0.1.

G7C G27A C46A: the self-cleavage is 0.41.

With C10U C15U G19U G21C G22U C42U, the self-cleavage worked out at 0.08.

Take A12G G21U C37U U43A: the self-cleavage came out at 0.

As for C15U C31G C37U C45G, the self-cleavage was 0.03.

For A4U A14U C37A G44U, the self-cleavage amounted to 0.03.

Take A26G U34A G40A: the self-cleavage amounted to 0.07.

On to C8A C13A A16U A26U A41C, for which the self-cleavage is 0.07.

For C3A U34C C42A, the self-cleavage came out at 0.15.

Take G21U U28C C42G: the self-cleavage came to 0.

Take G5U A11G G29U: the self-cleavage stood at 0.

Consider C18U G36C G44A, for which the self-cleavage turned out to be 0.06.

G1U G2U G5C U9C G29C U34C A41C: the self-cleavage was 0.01.

As for A4G A11G A12U G21C G29A, the self-cleavage came to 0.03.

In the case of G2U A4C A16U A39U G44C C46U, the self-cleavage was 0.

For the variant A26U U28C G30U, the self-cleavage was 0.7.

G19C U32C C42U: the self-cleavage turned out to be 0.07.

As to A16G G21A G36U U38G, the self-cleavage is 0.02.

On to G5C C8A C10A A12U, for which the self-cleavage was determined as 0.03.

On to C10G A24C C31A G35C G40C U43C, for which the self-cleavage amounted to 0.

Turning to C3U G5A U38G A39U, the self-cleavage is 0.62.

Consider G1C A12G G17U C18G U28C, for which the self-cleavage was determined as 0.

Turning to C15U G22U C37A A41G, the self-cleavage came out at 0.01.

As to C8G A16G A25G G29C, the self-cleavage was 0.02.

U9G A26G G40C U43C: the self-cleavage came out at 0.13.

As for G5A G17U U38A G40C G44U, the self-cleavage came out at 0.01.

As for C10G C15A C18U A26C C46A, the self-cleavage came out at 0.02.

On to G1U A16G U38A, for which the self-cleavage came to 0.11.

As for A16U G21A A24U U32C G35C C37A, the self-cleavage came out at 0.01.

With C8U A16C C18G A24U A25C G30C, the self-cleavage turned out to be 0.01.

As for C8G A26G G35A A41C, the self-cleavage amounted to 0.07.

Regarding G1A C8U A16C, the self-cleavage turned out to be 0.3.

Regarding C23G G30U G35A C42A, the self-cleavage amounted to 0.02.

On to C8U G22C G30U G40A, for which the self-cleavage amounted to 0.2.

In the case of G1U G29U G30C, the self-cleavage stood at 0.83.

A6C U9G C45A: the self-cleavage turned out to be 0.02.

As to U9A U20A C23A, the self-cleavage was 0.02.

G17U G22A U34C C45A: the self-cleavage amounted to 0.02.

For A25U C37A G40A, the self-cleavage turned out to be 0.11.

Regarding C18A U32G C37A, the self-cleavage worked out at 0.

In the case of C15A A41C U43C, the self-cleavage was found to be 0.

On to G7U A11G A16U G19C C31G G36A A41C, for which the self-cleavage worked out at 0.01.

With C13A G29U C37A, the self-cleavage came to 0.18.

G2C G7U A24G: the self-cleavage was found to be 0.21.

Turning to U20A C31A C37A, the self-cleavage worked out at 0.05.

On to C15A A25U G30A G36A A39G A41C, for which the self-cleavage stood at 0.18.

With A12U C18G G27A G40U, the self-cleavage was found to be 0.09.

As for C3U C10G G29U, the self-cleavage was 0.

For G21A A26G G29A A39U, the self-cleavage was 0.59.

For C18A G29C C37U, the self-cleavage was found to be 0.04.

In the case of A6G A12U A26G U32A G40U, the self-cleavage is 0.06.

Take C3U C15U C18A U28A G30U U34G: the self-cleavage worked out at 0.03.

For the variant A16G U20G U28C G36U, the self-cleavage stood at 0.

On to G1C A12C C23A G27A, for which the self-cleavage turned out to be 0.01.
